Source: paper PMC7909954 (eLife, 2021)
Like-named read-outs stand apart in the source and are kept apart here.

Assays:
C57BL/6J mice [1] = conditions: icv; MP1207 and MP1208 up to 100 nmol, morphine 30 nmol, U50,488h 100 nmol
C57BL/6J mice [2] = tested on: C57BL/6J mice
C57BL/6J mice [3] = experiment: Locomotor activity (ambulations), CLAMS

Compound	conditioned place preference / aversion (C57BL/6J mice [1])	respiratory rate vs vehicle/saline (C57BL/6J mice [2]; 30 nmol icv)	respiratory rate vs vehicle/saline (C57BL/6J mice [2]; 100 nmol icv)	ambulation (locomotor effect) (C57BL/6J mice [3]; 100 nmol icv)	respiratory rate vs vehicle (C57BL/6J mice [2]; 35 nmol icv)	respiratory rate vs saline (C57BL/6J mice [2]; 30 mg/kg IP)	ambulation (locomotor effect) (C57BL/6J mice [3]; 30 nmol icv)
NCc1cccc(C(=O)N[C@@H]2CCC3C4Cc5ccc(O)c6c5[C@@]3(CCN4CC3CC3)C2O6)c1 (stereo partly drawn) [MP1207, 3-(Aminomethyl)-N-((7R,12bS)−3-(cyclopropylmethyl)−9-hydroxy-2,3,4,4a,5,6,7,7a-octahydro-1H-4,12-methanobenzofuro[3,2-e]isoquinolin-7-yl)benzamide]	failed to show either rewarding or aversive behavior	increased breathing rates	increased respiration at 120–160 min	did not			
N=C(N)NCc1cccc(C(=O)N[C@@H]2CCC3C4Cc5ccc(O)c6c5[C@@]3(CCN4CC3CC3)C2O6)c1 (stereo partly drawn) [MP1208, N-((7R,12bS)−3-(Cyclopropylmethyl)−9-hydroxy-2,3,4,4a,5,6,7,7a-octahydro-1H-4,12-methanobenzofuro[3,2-e]isoquinolin-7-yl)−3-(guanidinomethyl)benzamide]	failed to show either rewarding or aversive behavior				increased respiratory rate		
CN1CC[C@]23c4c5ccc(O)c4O[C@H]2[C@@H](O)C=C[C@H]3[C@H]1C5 [Morphine, reference compound]	place preference	respiratory depression	respiratory depression	significantly different		depressed respiration	significant hyperlocomotion
